These results are taken from PubChem BioAssay AID1963576 (National Center for Advancing Translational Sciences (NCATS), 2024).

Hit rate of the full screen: of about 46,000 compounds, about 60 (0.1%) were called active. Inconclusive results (about 3%) are left out. Calls follow the shape of the dose curve; as a rule, active = well fitted inhibition curve with a large enough effect; inconclusive = small, poorly fitted or top-dose-only effect; inactive = no such curve, though single readings can be large or run the other way. The list shows a part of the results.

The nature of this assay: Primary qHTS assay for Inhibitors of ovarian cancer metastasis using an organotypic tumor microenvironment (TME) model. Also: nearly all actives have a fitted effect of over 65% in size.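 As to activity change, negative = inhibition: plate controls were DMSO wells for no effect and tomatine positive control wells for full effect.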 Conditions: SKOV3ip1-GFP adhesion/invasion on 3D omental model, fluorescence; series mostly up to 45.8 µM; activity change, negative = inhibition: at the top concentration. Put shortly:
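Adhesion/invasion was scored as fixed GFP-labeled SKOV3ip1 cell counts (488/509 nm), normalized to DMSO and tomatine controls. Cancer cells in serum-free medium, with four compound doses (0.36-46 umol/L), sat 2 hr at RT then 16 hr at 37 C on a 48 hr fibroblast/mesothelial/ECM culture.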
(qHTS replaces the single test concentration by a dilution series.)
On to `Cc1cccc(NC(=O)c2ccc3nc(CCc4ccccc4)oc3c2)c1C`, for which the “activity change, negative = inhibition” value is inactive: -5.81%.

As for `Cc1cccc(N2CCN(c3ccc(NC(=O)c4ccccc4)cc3C(=O)O)CC2C)c1` (stereo not drawn), the “activity change, negative = inhibition” value is inactive: 0.319%.

On to `COc1ccc(-c2noc(CSc3nc(N)cc(=O)[nH]3)n2)cc1`, for which the “activity change, negative = inhibition” value was inactive: -9.05%.

Turning to `Cc1cc2[nH]c(=O)c(=O)[nH]c2cc1S(=O)(=O)Nc1ccc(OC(F)(F)F)cc1`, the “activity change, negative = inhibition” value is inactive: -4.82%.

On to `Cc1cccc(OC(=O)c2cc(-c3ccc4c(c3)OCCO4)on2)c1C`, for which the compound was classed as inactive.

`COc1cccc(CNC(=O)C(Cc2ccccc2)NS(=O)(=O)c2ccc3c(c2)oc(=O)n3C)c1` (stereo not drawn): the “activity change, negative = inhibition” value was inactive: 4.7%.

As for `COc1ccccc1C(=O)Nc1onc2c1CCCC2`, the “activity change, negative = inhibition” value is inactive: 0.159%.

For `CCOC(=O)c1ccc(NC(=O)CN2Cc3ccccc3C2=O)cc1`, the “activity change, negative = inhibition” value is inactive: 2.56%.

`COc1ccc(-c2noc(-c3nnn(-c4ccc(C(C)C)cc4)c3C)n2)cc1OC`: the compound was called inactive.

For `Cc1cc(O)c2c(C)c(CC(=O)N3CCCCC3)c(=O)oc2c1`, the “activity change, negative = inhibition” value was inactive: 16.8%.

Take `CCCS(=O)(=O)N1CCC(N2CCN(Cc3ccc(F)cc3)C(=O)C2=O)CC1`: the “activity change, negative = inhibition” value was inactive: -0.51%.

As to `Cc1cc(Nc2cccc(Cl)c2)nc2ccc(NC(=O)c3cccc(N(C)C)c3)cc12`, the “activity change, negative = inhibition” value was inactive: -3.89%.

For `O=C(Nc1ccccc1)c1ccc2c(O)c(S(=O)(=O)c3ccc(Cl)cc3)c(=O)[nH]c2c1`, the call was inactive.

As for `O=C(NCc1ccc(F)cc1)c1ccc2c(c1)nc1n2CCCCC1`, the “activity change, negative = inhibition” value was inactive: -2.04%.

For the compound `Cc1ncc(CO)c2c1Oc1nc(-c3ccc(F)cc3)nc(SCc3ccc(F)cc3Cl)c1C2`, the “activity change, negative = inhibition” value was inactive: 4.35%.

On to `Cc1ccccc1Cn1c2ccccc2c2cnn(CC(=O)N3CCC(C)CC3)c(=O)c21`, for which the “activity change, negative = inhibition” value was inactive: -5.25%.

On to `Cc1ccc(S(=O)(=O)NCC(Nc2cccc(Cl)c2)c2ccccc2)cc1` (stereo not drawn), for which the “activity change, negative = inhibition” value was inactive: -4.59%.

As for `CCOc1ccc(-c2cccc(NS(=O)(=O)c3ccccc3C(F)(F)F)c2)nn1`, the “activity change, negative = inhibition” value is inactive: -8.25%.

In the case of `Cc1ccc(NC(=O)Cn2cc(C(=O)c3ccco3)c3ccccc32)cc1`, the “activity change, negative = inhibition” value was inactive: -5.95%.

As for `O=S(=O)(c1ccc2nc(Nc3cccc(F)c3)ccc2c1)N1CCCC1`, the “activity change, negative = inhibition” value is inactive: -2.82%.

As for `CCn1cc(C(=O)N2CCN(c3ccc(OC)cc3)CC2)c2cc(OC)c(OC)cc2c1=O`, the “activity change, negative = inhibition” value is inactive: 2.46%.

`CCOc1ccccc1C1C(C(=O)Nc2ccccc2)=C(C)Nc2c(C(=O)Nc3ccc(F)cc3)cnn21` (stereo not drawn): the “activity change, negative = inhibition” value is inactive: -0.955%.

With `CCn1c(C(=O)N2CCCC(C(=O)N3CCN(c4ccccc4)CC3)C2)cc2sccc21` (stereo not drawn), the compound was classed as inactive.

Take `COc1ccc(-c2cc3nccc(-c4cc(Cl)c(C)cc4O)n3n2)cc1`: the compound was classed as inactive.

As to `CCc1ccc(NC(=O)N2CCC(N3CCN(Cc4ccc(C)cc4)C(=O)C3=O)CC2)cc1`, the “activity change, negative = inhibition” value is inactive: -1.16%.

For the compound `O=c1cc(-c2ccccc2)n2c(SCc3ccc(Br)cc3)nnc2[nH]1`, the call was inactive.

Take `Cc1nn(CC(=O)NCCc2ccccc2)c(=O)c2c1sc1ccccc12`: the “activity change, negative = inhibition” value was inactive: 14.2%.

Turning to `CCOc1ccccc1NC(=O)CSC1=Nc2ccccc2C2=NC(CC(=O)NCc3ccc4c(c3)OCO4)C(=O)N12` (stereo not drawn), the “activity change, negative = inhibition” value is inactive: 7.13%.

Turning to `CCC(C)NC(=O)Cn1c(=O)n(-c2ccc(C)c(C)c2)c(=O)c2c(C)c(C(=O)N(CC)CC)sc21` (stereo not drawn), the “activity change, negative = inhibition” value is inactive: -17%.

Consider `CC(C)(C)c1ccc(C(=O)N2CCN(CCc3ccccn3)CC2)cc1`, for which the “activity change, negative = inhibition” value was inactive: 2.66%.

As for `CC(=O)N1c2ccc(S(=O)(=O)N(C)CC(=O)N(Cc3ccccc3)C(C)C)cc2CC1C` (stereo not drawn), the “activity change, negative = inhibition” value was inactive: 4.13%.

For the compound `CCN(Cc1ccccc1)Cc1c(O)ccc2oc(C)c(C(=O)Nc3ccccc3C)c12`, the “activity change, negative = inhibition” value is inactive: -13.5%.

`O=C(Cc1ccccc1)Nc1nnc2n1CCS2`: the “activity change, negative = inhibition” value was inactive: -5.62%.

Regarding `COc1ccccc1CN1C(=O)C(=O)c2cccc(C)c21`, the “activity change, negative = inhibition” value was inactive: -3.47%.

On to `COc1ccc(-n2ccnc(NCCc3ccc(Cl)cc3)c2=O)cc1OC`, for which the outcome was inactive.

As for `Cc1cc2nc(N(Cc3cccnc3)C(=O)c3ccc(Cl)s3)sc2cc1C`, the “activity change, negative = inhibition” value is inactive: 0.851%.

For the compound `CCCCSCCCNC(=O)c1c[nH]c2ccc(S(=O)(=O)Nc3cccc(OC)c3)cc2c1=O`, the “activity change, negative = inhibition” value was inactive: 6.5%.

Take `Cc1ccc(S(=O)(=O)NCC(c2ccc(N(C)C)cc2)N2CCc3ccccc32)cc1` (stereo not drawn): the “activity change, negative = inhibition” value was inactive: 2.93%.

With `CCOc1ccccc1NC(=O)N1CCc2c(sc3c2CCCC3)C1c1ccccc1` (stereo not drawn), the “activity change, negative = inhibition” value was inactive: 0.252%.

Regarding `COc1ccc(NC(=O)Nc2cc(-c3cn4cccnc4n3)ccc2OC)cc1`, the “activity change, negative = inhibition” value is inactive: -9.46%.

Turning to `Cc1ccc(CN2c3ccccc3-c3nc(SCC(=O)Nc4c(C)cc(C)cc4C)ncc3S2(=O)=O)cc1`, the “activity change, negative = inhibition” value was inactive: 3.29%.

Turning to `CCOc1ccccc1C(=O)N1CC(=O)Nc2ccc(C)cc2C1c1ccccc1` (stereo not drawn), the “activity change, negative = inhibition” value is inactive: -13%.

`Brc1ccc2c(c1)NC(c1cccnc1)=NC(c1ccccc1)=N2`: the “activity change, negative = inhibition” value is inactive: -16.8%.

`Cc1nn2c(=O)cc(COc3ccc(/C=C(\C#N)C(=O)Nc4ccccc4)cc3Cl)nc2s1`: the call was inactive.

`CNC1CCC(N(Cc2cccc(-c3ccncc3)c2)C(=O)c2sc3c(F)ccc(F)c3c2Cl)CC1` (stereo not drawn): the “activity change, negative = inhibition” value is inactive: -3.57%.

On to `O=C(OCc1ccccc1Cl)c1ccc(-c2nnn(Cc3ccc(F)cc3)n2)cc1`, for which the “activity change, negative = inhibition” value was inactive: 2.07%.

With `Cc1ccc(CNc2ncnc3onc(C)c23)cc1`, the “activity change, negative = inhibition” value was inactive: 23.1%.

As to `CCN(CC)c1ccc(NC(=O)CCS(=O)(=O)c2ccc3c(c2)oc(=O)n3C)c(C)c1`, the “activity change, negative = inhibition” value was inactive: 2.19%.
